Test results as given in publication PMC6212790.
The other results are listed elsewhere or left out. At the low end of the ranking, values are background and their order means little.

biological target: T1, GST-Rok-C97-191 (UniProt O34857); test: protein binding microarray; conditions: Rok is a gene silencer of Bacillus subtilis; high values mean tight binding; most listed sequences are background and not binding sites; double strand, one strand shown;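 further: rank score from −0.5 (least bound) to 0.5 (best bound)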
T1 sequence: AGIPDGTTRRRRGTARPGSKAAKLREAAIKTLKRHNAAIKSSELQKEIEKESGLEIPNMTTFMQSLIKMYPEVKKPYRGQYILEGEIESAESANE

Sequence	binding signal [E-score]
CACAACCA	-0.0806
CCCAATCG	-0.233
GAGAGACA	-0.104
CGACTAAA	0.00284
AATGCGGA	-0.107
CCCCTGAA	-0.248
CTTGGATC	-0.153
AACTCCAG	0.0734
GCCCTGTA	-0.192
ATAGTTTC	0.292
CTGTTAAG	-0.000113
CTTCGTAA	0.000147
CACGTCTC	-0.00409
AATTCTGA	0.173
CCTACTCA	0.0753
GCTTTACA	-0.0184
CACCTAAC	-0.0684
CAGACGGG	-0.296
TAAGTATA	0.238
ACAGCCGC	-0.187
ACGTATGC	0.079
AAGAATTC	0.105

Sequence	binding signal [E-score]
CTGGCTGA	-0.0706
ACGAGCAA	-0.0517
CGCCCGCC	-0.338
GCAAAAGA	-0.137
ACGGGAAG	-0.0482
AAGCTGCC	-0.171
ATATGGCA	0.0279
GACATGTC	-0.0877
CATCCAGC	-0.14
CGTATTCA	0.00996
CCGGACCG	-0.0456
CGTGGACC	-0.328
ATCTCGAC	-0.00603
CGACTACA	0.0949
AACCCGCC	-0.15
ACCGCGGT	-0.187
GGGCTTAC	-0.146
GGTGTCTA	-0.262
AAGCTACA	0.255
GCGCATTA	0.0826
ATTCTGCC	-0.126
CCAATCGC	-0.104

Sequence	binding signal [E-score]
AAGCGTAC	0.0318
AATAACCG	0.184
GAGAGCCA	-0.218
CAGCGATG	-0.0412
CACATGCC	-0.135
ACTCTAGG	-0.0737
AGCAAACT	0.193
AATAGTGT	0.242
AACTTGTC	0.0565
ATGTTTTG	0.0475
GGATGTAA	0.129
CTCTCTAA	-0.0469
AGGGCGTC	-0.365
AACACGGA	0.131
CATGCTCA	0.064
CGACGGGC	-0.226
GATTTCTA	0.357
CAGCATTC	0.027
CGAGACGC	-0.242
CCGCTCTA	-0.175
AAATAATT	0.246
CAAGTTGA	-0.0731

Sequence	binding signal [E-score]
ATAGGTGG	0.0357
CCAGCGTC	-0.163
ATAATGAA	0.189
CTTTTCCC	-0.195
AAACCTGC	-0.127
ACACCTTG	-0.0452
CAGCACGG	-0.0741
TGTATCAA	0.167
CCTCCGAA	-0.171
ATCGGGTG	0.0181
CAGTATCC	-0.121
AGCAGAAC	-0.0989
AGCAAGCT	-0.0272
ATAACACA	0.213
AGTCGAGG	-0.0751
AGGAGCAA	-0.154
GACGCTAA	-0.00173
CGTTGGCC	-0.257
CCCGTTAA	-0.0438
GACGGTTA	-0.0862
CTATCCTC	-0.0343
AAGGATAG	0.108

Sequence	binding signal [E-score]
CCGAGGGC	-0.27
AGCCGGGG	-0.111
AGCCTGTC	-0.234
ACCATCAG	-0.116
GAACAGCC	-0.208
AAGTAGAA	0.363
GAGAGATA	-0.0249
CGCTCATA	0.0193
AATCTACT	0.43
GTTATCTA	0.318
CATTTTGG	-0.0899
CCCGTATA	0.161
CATTTTCC	0.0179
CAATGTAA	-0.0287
CGAGGTCA	-0.221
CATTCCCC	-0.302
TAAACGCA	-0.0161
CTAAAAGA	0.221
CAAAAATC	-0.0624
GCAGACGA	-0.272
AGGTCCCG	-0.133
AGGCTAAC	-0.0834
